# Experimental data published in the supplement of paper PMC12217912.
# This is one part of the list. The full chains were built here from the parent and the listed change. Values near 0.05 are background.
# B1: TEV protease; numbered along this chain (parent)
# chain: MGESLFKGPRDYNPISSSICHLTNESDGHTTSLYGIGFGPFIITNKHLFRRNNGTLVVQSLHGVFKVKDTTTLQQHLVDGRDMIIIRMPKDFPPFPQKLKFREPQREERICLVTTNFQTKSMSSMVSDTSCTFPSGDGIFWKHWIQTKDGQCGSPLVSTRDGFIVGIHSASNFTNTNNYFTSVPKNFMELLTNQEAQQWVSGWRLNADSVLWGGHKVFMVKPEEPFQPVKEATQL
# Variants of: B1
# Test: raw area under fraction-flipped curve 0-4 h after induction (AUC4h, not background-subtracted), DNA-recorder readout of cleavage of the substrate (dimensionless); higher = more cleavage of the substrate by the protease variant
# Details: temperature: 34 °C; time window: 0-4 h after rhamnose induction
# Experimental: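 In vivo DNA recorder in E. coli TOP10(DE3) ΔrhaA at 34 °C. Each TEVp single-site mutant (parent TEVp 0) is paired with a single-site variant of the 7-mer TEVs (canonical ENLYFQ|S). The substrate sits between flexible linkers in a Bxb1-sfGFP-TEVs-SsrA fusion, so cleavage stabilises Bxb1 and speeds flipping of a recombination array, read by NGS. The value is the raw area under the fraction-flipped curve over 0-4 h after rhamnose induction (AUC4h), with ≥20 reads per time point. It is not background-subtracted; inactive controls average about 0.047.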
# 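Further: Bxb1 expression induced with 0.2% (w/v) L-rhamnose at OD600 near 0.5, cultures sampled hourly, flipped fraction per protease–substrate barcode pair counted by paired-end Illumina sequencing.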
Variant,area with substrate ENLYFCS,area with substrate ENLYFHS,area with substrate ENLYFIS,area with substrate ENLYFKS,area with substrate ENLYFMS,area with substrate ENLYFNS,area with substrate ENLYFPS,area with substrate ENLYFRS,area with substrate ENLYFTS,area with substrate ENLYFYS,area with substrate ENLYFES,area with substrate ENLYFFS,area with substrate ENLYFGS,area with substrate ENLYFSS,area with substrate ENLYFVS,area with substrate ENLYFWS,area with substrate ENLYFLS,area with substrate ENLYFDS
Q198H,0.0727,0.0622,0.0521,0.0647,0.0762,0.0591,0.0538,0.0634,0.0484,0.0518,–,–,–,–,–,–,–,–
F140N,0.0706,0.0533,0.0519,0.0609,0.0655,0.0795,0.0618,–,0.0591,0.0542,0.0623,0.0699,0.0627,0.0512,0.0722,0.0572,–,–
Q146A,0.056,–,–,0.0811,0.0968,0.068,0.064,0.0695,–,–,–,–,–,0.0265,–,–,0.0442,–
Q146F,0.0653,0.0924,0.0597,0.0738,–,–,0.0533,–,0.0585,0.0447,–,0.0777,0.0703,0.0573,–,0.0507,–,–
S182P,0.0626,–,0.0478,0.0808,0.0672,0.0723,–,0.0698,0.0596,–,0.0848,0.0708,–,–,0.064,0.0562,–,0.0792
S182I,0.0565,0.0559,0.0469,–,0.0666,–,0.0539,0.0844,0.0515,0.041,0.0457,–,–,0.0477,–,0.0373,–,–
G202T,0.0491,0.0035,–,–,0.051,–,0.0304,–,–,–,–,–,–,0.0826,–,0.106,–,–
F117S,0.082,–,0.0615,0.0711,0.0911,0.0636,0.0651,–,–,–,0.0601,–,0.0459,–,–,0.0415,0.0454,–
L205T,0.0521,–,–,–,0.0577,–,–,–,0.0536,–,–,–,0.07,–,–,–,–,–
K90P,0.0546,–,0.0613,0.0604,0.0751,0.0582,0.0504,0.0439,0.0598,0.0559,0.0731,0.063,–,0.0579,–,0.0665,0.0663,–
K90S,0.0743,–,0.0558,0.0631,0.0753,0.074,0.0674,0.0606,0.058,0.0466,–,0.0667,0.0674,0.0446,0.0553,0.0602,–,0.0611
S130K,0.0499,0.052,0.0503,0.0628,0.0564,0.0715,0.0561,0.0534,–,0.0536,0.0623,0.0591,0.0556,0.0622,0.0619,0.0503,–,–
R106V,0.0429,0.0607,0.0425,0.0499,0.0703,–,0.0613,0.0619,0.0703,0.0539,–,0.0589,0.0604,0.0592,0.065,0.0758,0.0586,0.0826
E107P,0.0734,–,–,–,0.0229,0.0522,0.054,0.0461,–,–,0.078,–,–,–,–,0.0522,–,–
T174Q,0.0488,–,0.0498,–,0.0671,0.0544,0.0765,0.0589,–,0.0556,–,–,0.0722,0.0575,–,0.0621,–,0.0484
P134N,0.061,0.0579,0.0497,0.0455,0.0555,0.0449,0.0547,–,0.0709,–,0.0589,0.0587,–,0.0521,0.0622,0.04,0.0636,0.0864

Variant,area with substrate ENLYFCS,area with substrate ENLYFHS,area with substrate ENLYFIS,area with substrate ENLYFKS,area with substrate ENLYFMS,area with substrate ENLYFNS,area with substrate ENLYFPS,area with substrate ENLYFRS,area with substrate ENLYFTS,area with substrate ENLYFYS,area with substrate ENLYFES,area with substrate ENLYFFS,area with substrate ENLYFGS,area with substrate ENLYFSS,area with substrate ENLYFVS,area with substrate ENLYFWS,area with substrate ENLYFLS,area with substrate ENLYFDS
F101C,0.0573,0.0477,0.057,0.056,0.0624,–,0.0557,0.0486,0.0576,0.042,0.0535,0.0642,0.0541,0.0604,0.0587,0.0866,0.0641,–
P93V,0.0754,0.0331,0.0539,–,0.0379,–,–,–,0.0478,–,0.0616,0.0654,–,–,0.0636,–,–,0.0484
P93T,0.0544,–,0.0581,–,0.0615,0.0549,0.0614,–,–,–,–,0.0734,–,–,–,0.0637,–,0.0792
R87Y,0.0504,–,–,0.0713,0.0674,–,0.0995,0.0566,0.0582,–,0.0635,0.0568,0.0657,–,0.0557,–,0.0577,–
R87F,0.043,–,0.0543,0.0641,0.0576,0.0559,0.071,0.0605,0.068,–,0.0573,0.0754,0.0595,0.0646,0.0589,0.0531,0.0398,–
R87A,0.0542,–,–,–,0.0699,–,–,–,–,–,–,0.0627,–,0.0471,0.0713,–,–,–
T119Y,0.0554,0.0717,0.0586,0.064,0.0548,0.0509,–,0.0764,0.0634,–,0.0528,0.0706,0.0624,–,0.0564,–,0.0822,0.0589
F133I,0.0586,–,0.0569,–,–,–,0.0668,–,–,–,0.0578,0.0726,–,0.0716,0.0421,0.0774,–,–
F133A,0.056,–,0.0635,–,0.0684,–,–,–,–,0.0663,0.0824,0.0617,–,0.0849,–,0.0598,–,–
F133H,0.0596,0.0559,0.0494,–,0.0683,0.0652,0.0408,–,–,0.0625,0.0679,–,–,–,0.0504,–,0.0518,–
F173C,0.0603,–,0.0528,–,0.0697,0.0519,0.0599,0.0534,0.053,0.0667,–,–,–,–,–,–,0.0567,0.0505
F173N,0.0814,0.0556,–,–,0.0672,0.0677,–,–,–,–,–,0.0364,0.0521,0.0514,0.0539,–,–,–
D137I,0.0506,0.0544,0.0585,0.0544,0.0582,0.0573,0.0758,–,0.0784,0.0599,0.0514,0.0561,–,0.0655,–,0.0598,–,0.0608
V210R,0.0668,–,0.0583,–,–,–,0.0593,0.0561,0.067,–,0.0501,0.0588,–,0.0636,–,0.0613,–,–
S124L,0.0581,–,0.0613,–,0.0591,–,–,0.0582,–,–,0.0621,0.0746,–,0.0671,–,–,–,–
D91K,0.0655,0.0623,0.0625,–,0.085,0.0727,–,0.0587,–,0.0577,0.0646,–,–,–,–,–,–,0.0591
